Source: the supplement of paper PMC4967469
By IC50 is meant the dose at which the fit gives 50% viability; fits outside the tested doses are given as limits. The AUC spans the tested range (256-fold, ending at the top dose) of the same fit; the more sensitive the line, the further below 1. For part of these data: Any top dose called inferred was derived from the fitted curves, not read from the paper. For part of these data: Drugs with an entry number were screened twice under separate entries, and the two screens often disagree.

How the values were obtained:
Assay in all cases: Viability of human cancer cell lines after 72 h of drug (GDSC screen)
AR-42 = compound: CC(C)[C@H](C(=O)Nc1ccc(C(=O)NO)cc1)c1ccccc1 [AR-42]; settings: top dose 5.12 µM; top dose inferred
Method: (§1)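 Human cancer cell lines in 384-well plates, medium with 10% serum, drug for 72 h over a 256-fold dose range (nine 2-fold or five 4-fold steps up to the top dose). Adherent lines were fixed and stained with the nucleic acid dye Syto60, suspension lines read with resazurin; signal relative to control wells, capped at 0 and 100%. One two-parameter sigmoid per drug and line, fitted in a mixed model over all curves with the slope shared within a line.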

CEP-701 = compound: C[C@]12O[C@H](C[C@]1(O)CO)n1c3ccccc3c3c4c(c5c6ccccc6n2c5c31)CNC4=O [CEP-701]; settings: top dose 2 µM; top dose inferred
Method: as §1

GDC0941 = compound: CS(=O)(=O)N1CCN(Cc2cc3nc(-c4cccc5[nH]ncc45)nc(N4CCOCC4)c3s2)CC1 [GDC0941]; settings: top dose 4 µM; screen: GDSC drug entry 1527; top dose inferred
Method: as §1

Pazopanib = compound: Cc1ccc(Nc2nccc(N(C)c3ccc4c(C)n(C)nc4c3)n2)cc1S(N)(=O)=O [Pazopanib]; settings: top dose 8 µM
Method: as §1

Cell Line	AUC (AR-42)	IC50 (AR-42)	AUC (CEP-701)	IC50 (CEP-701)	AUC (GDC0941)	IC50 (GDC0941)	AUC (Pazopanib)	IC50 (Pazopanib)
MS751 (cervix, adherent)	0.833	2950 nM	0.629	275 nM	0.895	> 4000 nM	0.974	> 8000 nM
NCI-H661 (large cell lung carcinoma, adherent)	0.468	258 nM	0.923	> 2000 nM	–	–	0.943	> 8000 nM
NCI-H841 (small cell lung carcinoma, adherent)	0.717	1320 nM	0.663	356 nM	0.935	> 4000 nM	0.947	> 8000 nM
NCI-H1437 (lung adenocarcinoma, adherent)	0.654	872 nM	0.725	563 nM	–	–	0.946	> 8000 nM
NCI-H1781 (lung adenocarcinoma, adherent)	0.823	3020 nM	0.839	1370 nM	0.885	> 4000 nM	0.954	> 8000 nM
NCI-H1944 (lung adenocarcinoma, adherent)	0.474	271 nM	0.587	220 nM	0.651	677 nM	0.842	6200 nM
NCI-H2009 (lung adenocarcinoma, adherent)	0.906	> 5120 nM	0.734	609 nM	0.837	2890 nM	0.946	> 8000 nM
NCI-H2444 (non-small cell lung carcinoma, adherent)	0.646	859 nM	0.888	> 2000 nM	0.936	> 4000 nM	0.988	> 8000 nM
